# Measurements from PMC12820563.
# The other results are listed elsewhere or left out. The list includes weakly bound sequences.
# Target: T1, MBP-FoxP3dN (UniProt Q99JB6)
# T1 sequence: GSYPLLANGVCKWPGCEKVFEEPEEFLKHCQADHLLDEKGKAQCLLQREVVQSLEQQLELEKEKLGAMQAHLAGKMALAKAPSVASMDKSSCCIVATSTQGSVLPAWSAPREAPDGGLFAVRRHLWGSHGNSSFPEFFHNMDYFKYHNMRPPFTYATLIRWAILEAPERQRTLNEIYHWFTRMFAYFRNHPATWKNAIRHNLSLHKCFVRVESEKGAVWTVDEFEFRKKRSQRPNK
# Assay: PD-seq (MBP pull-down with sequencing)
# Conditions: 20 mM Tris-HCl pH 7.5, 100 mM NaCl, 1.5 mM MgCl2, 0.4 uM protein, 0.1 uM dsDNA library, 30 min, room temperature, amylose pull-down; high values mean tight binding; double strand, one strand shown
row,Sequence,binding signal (RPM ratio (pull-down/input))
1,GATGATTGTTCTCCCAGCTGATGAATTTTGTTCTTCGAGTAAACAAATTTTCCTAATCTTTCTGTTCAAGCGCCATCTAC,1.21
2,GATGATTGTTCTCCCAGCTGATGAATTTATAATCTCGAGTAAACAAATTTTCCTAATCTTTCTGTTCAAGCGCCATCTAC,0.978
3,GATGATTGTTCTCCCAGCTGATGAATTGACGGGCTCGAGTAAACAAATTTTCCTAATCTTTCTGTTCAAGCGCCATCTAC,0.29
4,GATGATTGTTCTCCCAGCTGATGAATTGCGACAGTCGAGTAAACAAATTTTCCTAATCTTTCTGTTCAAGCGCCATCTAC,0.853
5,GATGATTGTTCTCCCAGCTGATGAATTGGACTTATCGAGTAAACAAATTTTCCTAATCTTTCTGTTCAAGCGCCATCTAC,0.59
6,GATGATTGTTCTCCCAGCTGATGAATTACCTCCTTCGAGTAAACAAATTTTCCTAATCTTTCTGTTCAAGCGCCATCTAC,0.278
7,GATGATTGTTCTCCCAGCTGATGAATTTCAGACGTCGAGTAAACAAATTTTCCTAATCTTTCTGTTCAAGCGCCATCTAC,0.249
8,GATGATTGTTCTCCCAGCTGATGAATTGGGCGTTTCGAGTAAACAAATTTTCCTAATCTTTCTGTTCAAGCGCCATCTAC,2.47
9,GATGATTGTTCTCCCAGCTGATGAATTGCAACCATCGAGTAAACAAATTTTCCTAATCTTTCTGTTCAAGCGCCATCTAC,4.48
10,GATGATTGTTCTCCCAGCTGATGAATTCCGCCAATCGAGTAAACAAATTTTCCTAATCTTTCTGTTCAAGCGCCATCTAC,0.896
11,GATGATTGTTCTCCCAGCTGATGAATTCTTCTCCTCGAGTAAACAAATTTTCCTAATCTTTCTGTTCAAGCGCCATCTAC,0.188
12,GATGATTGTTCTCCCAGCTGATGAATTAACCCCTTCGAGTAAACAAATTTTCCTAATCTTTCTGTTCAAGCGCCATCTAC,0.281
13,GATGATTGTTCTCCCAGCTGATGAATTCCGGAGGTCGAGTAAACAAATTTTCCTAATCTTTCTGTTCAAGCGCCATCTAC,0.21
14,GATGATTGTTCTCCCAGCTGATGAATTTCATCAGTCGAGTAAACAAATTTTCCTAATCTTTCTGTTCAAGCGCCATCTAC,0.309
15,GATGATTGTTCTCCCAGCTGATGAATTTTGCAGTTCGAGTAAACAAATTTTCCTAATCTTTCTGTTCAAGCGCCATCTAC,2.37
16,GATGATTGTTCTCCCAGCTGATGAATTTCAACTCTCGAGTAAACAAATTTTCCTAATCTTTCTGTTCAAGCGCCATCTAC,0.601
17,GATGATTGTTCTCCCAGCTGATGAATTAAACCCATCGAGTAAACAAATTTTCCTAATCTTTCTGTTCAAGCGCCATCTAC,0.304
18,GATGATTGTTCTCCCAGCTGATGAATTCGGGCAATCGAGTAAACAAATTTTCCTAATCTTTCTGTTCAAGCGCCATCTAC,1.73
